Measured values from PubChem BioAssay (NCATS).
This list was built around the results that the source calls inconclusive (neither active nor inactive); the mix of calls is not that of the screen. Active and inactive are the calls of the source. Calls follow the shape of the dose curve; as a rule, active = well fitted curve in either direction with a large enough effect (not every such curve was filed as active); inconclusive = small, poorly fitted or top-dose-only effect, or another doubt; inactive = flat fitted curve, though single readings scatter.

Experiments:
[1] = AP1 Signaling Pathway (AID 357); settings: ME-180 (cervical carcinoma) AP-1-bla reporter, EGF-induced, beta-lactamase ratio, 5 h; at 17.2 µM (top of the series) unless noted;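 also: ME-180 reporter cells stimulated with EGF at its EC50 level; top concentration of the series differs between compounds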
In short: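 Read-out was the 460nm/530nm emission ratio (excitation 405nm) after CCF4 loading for 2.5 hours at room temperature. Cells carried an AP-1-driven beta-lactamase reporter, were stimulated with EC50 EGF plus compound for 5 hours, and AC50 values came from titrations.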

[2] = NFAT Signaling Pathway (AID 444); settings: Jurkat NFAT-bla M1, carbachol, beta-lactamase ratio, 5 h; at 17.2 µM (top of the series) unless noted;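 also: carbachol stimulus at about its EC50 of 1 µM final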
In short: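 Read-out: CCF4 FRET ratio (460 nm/530 nm) after 1 h RT dye loading, used for %activity and AC50 from titration series. Cells: Jurkat NFAT-β-lactamase/M1 line, treated with compound plus 1 uM carbachol for 5 h, 37 °C.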
% is scaled to controls: 0 for no effect and ±100 for the full control effect.

SMILES	activity change, negative = inhibition [1]	activity change, negative = inhibition [2]
CCCOC(=O)CSC1=C(C#N)C(c2ccccc2OCC)C(C#N)C(=O)N1 (stereo not given)	inconclusive: -36.8% [inhibitor]	inconclusive: 56.1% [activator]
CCCC(=O)Nc1sc2c(c1C#N)CCCC2	inactive: -16.2%	inactive: -0.791%
CCOc1ccc(/C(O)=C2/C(=O)C(=O)N(c3cc(C)on3)C2c2ccc(C(=O)OC)cc2)cc1 (stereo not given)	inconclusive: -10.3% [inhibitor]	inconclusive: -47.8% [inhibitor]
O=C(c1ccc2c3c(cccc13)C(=O)N(O)C2=O)N1CCCCC1	inconclusive: 85.1% [activator]	inactive: 0.433%
Cc1cc(N/C=C/C(=O)c2cccc3ccccc23)no1	inconclusive: -31.4% [inhibitor]	inactive: -3.82%
OC1(c2cccc(C(F)(F)F)c2)CCN(c2ncnc3c2[nH]c2ccccc23)CC1	inconclusive: -30.6% [inhibitor]	inconclusive: -100% [inhibitor]
CCOC(=O)c1c(C)n(C)c2ccc(O)c(CN3CCCCC3)c12	inconclusive: 36.8% [activator]	inconclusive: -43% [inhibitor]
CC(C)c1ccc(O)c(O)c(=O)c1 (tested in a mixture with another compound)	inconclusive: -38.5% [inhibitor] [at 7.69 µM]	inconclusive: -36% [inhibitor] [at 7.69 µM]
CCN1CCc2c(C#N)c(N3CCCCC3)nc(NCc3ccccc3)c2C1	inconclusive: 44% [activator]	inconclusive: -80.6% [inhibitor]
CN(C)c1nc(OCCNC(=O)Nc2ccccc2)nc(N(C)C)n1	inconclusive: 50.8% [activator]	inconclusive: 30.9% [activator]
Cc1nnc2n(-c3ccccc3)c(=O)c3c4c(sc3n12)CC(C)CC4 (stereo not given)	inactive: 3.4%	inactive: -3.87%
N#Cc1nc(-c2ccc(Cl)cc2)oc1N1CCCCC1	inconclusive: -30.4% [inhibitor]	inconclusive: -32.4% [inhibitor]
O=C1c2ccccc2C(=O)N1c1ncccn1	inactive: 6.61%	inactive: -3.61%
Cc1cc(=O)oc(C)c1C(=O)NC12CC3CC(CC(C3)C1)C2	inactive: -5.66%	inactive: 1.02%
CCC(=O)Oc1ccc(/C(CC)=C(\CC)c2ccc(OC(=O)CC)cc2)cc1	inconclusive: -53% [inhibitor]	inconclusive: -94.9% [inhibitor]
CCOC(=O)CC(=O)CSc1[nH]c(=O)cc(C)c1C#N	inactive: 8.86%	inactive: 2.85%
N#Cc1cccc(NC(=O)N2CC3(CCN(C(=O)c4cc(C(F)(F)F)cc(C(F)(F)F)c4)CC3)C2)c1	inactive: -13.9% [at 7.69 µM]	inconclusive: 34.2% [activator] [at 7.69 µM]
C[C@]1(O)CC[C@H]2[C@H]3CC=C4N5CCN=C5CC[C@@]4(C)[C@H]3CC[C@@]21C	inactive: -0.00324% [at 7.69 µM]	inconclusive: -55.5% [inhibitor] [at 7.69 µM]
O=C(Oc1ccccc1)N1CCC2(CC1)CCN(c1cccc(-c3ccccc3)c1)CC2	inconclusive: 42.3% [activator] [at 7.69 µM]	inconclusive: -36.7% [inhibitor] [at 7.69 µM]
COCc1[nH]nc2c1C(c1sccc1C)C(C#N)=C(N)O2 (stereo not given)	inconclusive: -36.6% [inhibitor]	inconclusive: -52.1% [inhibitor]
COCC(=O)N1CCC2(CC1)CCN(c1ccncc1)CC2	inactive: 7.44% [at 7.69 µM]	inconclusive: -42.6% [inhibitor] [at 7.69 µM]
Cc1nc(-c2cn[nH]c2)c2cc(C)oc2n1	inactive: -1.95%	inconclusive: 1.42% [activator]
CCCCCCOC(=O)CCn1[nH]c(=O)c2ccccc2c1=O	inactive: 13%	inactive: 7.42%
c1ccc(-n2ncc3c(NCC4CCCO4)ncnc32)cc1 (stereo not given)	inactive: -4.47%	inactive: -15.8%
CC1(C)Cc2c(sc3c2C2=NCCN2C=N3)CS1	inconclusive: 32.6% [activator]	inconclusive: -67.7% [inhibitor]
